Where a name gives a salt, the structure may show the parent alone.
Legend:
[1] = system: HUV-EC-C cells; test: In vitro angiogenesis assay (tube formation); type: cell-based; conditions: 4 hr, FIGS. 1 and 2
Procedure: Activity against these RTKs can result in antiangiogenic activity which is associated with slowed tumor growth and/or tumor regression. To measure the antiangiogenic effects of compounds of the invention, selected examples were tested in an angiogenesis assay as described below.
HUV-EC-C cells were obtained from the American Type Culture Collection (ATCC, CRL-1730), and were used at early passage for the assay. The in vitro Angiogenesis Assay Kit (Chemicon) was used according to the manufacturer's recommendation. An ice-cold mixture of ECMatrix was transferred into a precooled 96-well plate. After the matrix solution had solidified (>1 hr incubation at 37° C.), 8,000 cells were mixed with the appropriate inhibitor concentration (in 100 microliters EGM-2) and plated into each well. The clinical antiangiogenic, Sutent was used as a positive control in comparison to a compound of the invention, A13. After incubation at 37° C. for 4 hr, tube formation was inspected. Two methods, pattern recognition and branch point counting, were used to quantify the progression of angiogenesis and expressed as a percentage of the control tube count (FIGS. 1 and 2).

[2] = target: Aurora A (Homo sapiens (Human), UniProt O14965); test: Aurora A inhibition assay (Z-Lyte); type: biochemical; conditions: read-out: Aurora A relative inhibition percentage
UniProt O14965, sequence (O14965 whole entry): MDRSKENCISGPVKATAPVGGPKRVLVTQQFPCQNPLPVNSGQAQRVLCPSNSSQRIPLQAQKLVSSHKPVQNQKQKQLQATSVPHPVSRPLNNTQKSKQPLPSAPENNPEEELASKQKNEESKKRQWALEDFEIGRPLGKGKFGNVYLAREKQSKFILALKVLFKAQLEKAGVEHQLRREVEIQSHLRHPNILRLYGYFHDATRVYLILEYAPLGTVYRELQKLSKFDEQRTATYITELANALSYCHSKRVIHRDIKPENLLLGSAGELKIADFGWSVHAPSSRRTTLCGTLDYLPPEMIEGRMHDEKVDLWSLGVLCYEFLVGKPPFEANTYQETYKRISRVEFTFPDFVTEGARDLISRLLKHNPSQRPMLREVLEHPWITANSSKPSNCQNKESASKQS

[3] = system: AMPKalpha; test: CEREP kinase panel (HTRF); type: biochemical, human
[4] = target: FLT3 (Homo sapiens (Human), UniProt P36888); test: FLT3 inhibition assay (Z-Lyte); type: biochemical; conditions: read-out: Flt3 IC50 Ranges
[5] = target: human PLK4 (Homo sapiens (Human), UniProt O00444); test: PLK4 inhibition assay (indirect ELISA); type: biochemical; conditions: read-out: PLK4 IC50 Ranges

Compound	antiangiogenic effect (tube formation) [1]	inhibition at 1 µM [2] [%]	further results
O=C1Nc2ccccc2[C@]12C[C@H]2c1ccc2c(/C=C/c3ccncc3)n[nH]c2c1 (relative stereo) [Example A22, (1R*,2S*)-(E)-2-(3-(2-(pyridin-4-yl)vinyl)-1H-indazol-6-yl)spiro-[cyclo-propane-1,3′-indolin]-2′-one]	anti-agiogenic effects at submicromolar concentrations		
COc1ccc2c(c1)[C@]1(C[C@H]1c1ccc3c(-c4ccc(C5CCNCC5)cc4)n[nH]c3c1)C(=O)N2 (relative stereo) [Example A122, (1R*,2S*)-5′-methoxy-2-(3-(4-(piperidin-4-yl)phenyl)-1H-indazol-6-yl)spiro[cyclopropane-1,3′-indolin]-2′-one 2,2,2-trifluoroacetate]		< 50	
CCc1ccc2c(c1)[C@]1(C[C@H]1c1ccc3c(/C=C/c4ccc(CN(C)C)cc4)n[nH]c3c1)C(=O)N2 (relative stereo) [Example A167, (1R*,2S*)-(E)-2-(3-(4-((dimethylamino)methyl)styryl)-1H-indazol-6-yl)-5′-ethylspiro[cyclopropane-1,3′-indolin]-2′-one 2,2,2-trifluoroacetate]		> 50	
COc1ccc2c(c1)[C@]1(CC1c1ccc3c(-c4ccc(N5CCN(C)CC5)nc4)n[nH]c3c1)C(=O)N2 (single isomer, unassigned) [Example A13, (1R*, 2S*)-5′-Methoxy-2-(3-(6-(4-methylpiperazin 1-yl)pyridin-3-yl)-1H-indazol-6-yl)spiro[cyclopropane-1,3′-indolin]-2′-one]	anti-agiogenic effects at submicromolar concentrations		% Inhibition @ 10 uM [3]: 8%
COc1ccc2c(c1)[C@]1(C[C@H]1c1ccc3c(-c4ccc(N5CCN(C)CC5)cc4)n[nH]c3c1)C(=O)N2 [Example A39, (1R,2S)-5′-methoxy-2-(3-(4-(4-methylpiperazin-1-yl)phenyl)-1H-indazol-6-yl)spiro[cyclopropane-1,3′-indolin]-2′-one hydrochloride]			IC50 [4]: < 100 nM; IC50 [5]: < 100 nM
